From article PMC8462813
These are yes or no findings as the source states them, for the method shown. Some results given as binding are weak or reduced against the parent protein; the word gives no strength. Where a sequence is shown, tags or fusion partners need not be part of it.

Assays:
Experiment in all cases: two-hybrid; Gal4 system; baits in pGBKT7 (BD), preys in pGADT7 (AD), cotransformed into yeast AH109; growth on dropout medium lacking Leu, Trp, His and Ade for 4 days
[1] = molecular target: T1, BD-PRR5^1-180 (Arabidopsis thaliana) (UniProt Q6LA42)
T1 sequence: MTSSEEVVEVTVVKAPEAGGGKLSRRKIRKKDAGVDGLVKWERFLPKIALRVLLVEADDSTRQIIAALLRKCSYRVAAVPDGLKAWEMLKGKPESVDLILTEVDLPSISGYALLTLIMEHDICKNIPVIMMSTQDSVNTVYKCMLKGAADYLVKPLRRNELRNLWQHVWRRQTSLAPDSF

[2] = molecular target: T2, BD-PRR7 (PSEUDO-RESPONSE REGULATOR7, full length, fused to the Gal4 DNA-binding domain) (Arabidopsis thaliana) (UniProt Q93WK5)
T2 sequence: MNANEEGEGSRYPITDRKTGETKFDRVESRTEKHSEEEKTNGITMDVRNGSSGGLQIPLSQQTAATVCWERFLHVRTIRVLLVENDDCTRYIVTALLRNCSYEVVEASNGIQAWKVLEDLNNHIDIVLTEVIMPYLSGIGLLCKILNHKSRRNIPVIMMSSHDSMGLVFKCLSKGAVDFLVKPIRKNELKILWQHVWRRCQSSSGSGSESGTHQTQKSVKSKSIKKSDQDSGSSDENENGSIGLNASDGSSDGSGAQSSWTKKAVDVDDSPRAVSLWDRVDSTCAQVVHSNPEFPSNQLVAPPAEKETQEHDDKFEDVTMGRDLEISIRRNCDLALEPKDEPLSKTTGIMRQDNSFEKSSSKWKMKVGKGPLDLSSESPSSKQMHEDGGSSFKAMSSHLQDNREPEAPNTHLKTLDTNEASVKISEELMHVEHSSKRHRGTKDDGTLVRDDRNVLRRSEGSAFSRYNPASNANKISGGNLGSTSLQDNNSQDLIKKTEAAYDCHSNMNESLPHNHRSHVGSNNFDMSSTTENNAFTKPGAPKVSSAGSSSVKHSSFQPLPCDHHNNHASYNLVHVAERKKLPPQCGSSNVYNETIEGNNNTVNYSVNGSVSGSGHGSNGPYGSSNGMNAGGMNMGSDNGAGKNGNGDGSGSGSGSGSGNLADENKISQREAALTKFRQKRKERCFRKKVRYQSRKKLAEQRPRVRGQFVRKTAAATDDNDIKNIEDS

[3] = molecular target: T3, BD-TOC1 (TIMING OF CAB EXPRESSION1, full length, fused to the Gal4 DNA-binding domain) (Arabidopsis thaliana) (UniProt Q9LKL2)
T3 sequence: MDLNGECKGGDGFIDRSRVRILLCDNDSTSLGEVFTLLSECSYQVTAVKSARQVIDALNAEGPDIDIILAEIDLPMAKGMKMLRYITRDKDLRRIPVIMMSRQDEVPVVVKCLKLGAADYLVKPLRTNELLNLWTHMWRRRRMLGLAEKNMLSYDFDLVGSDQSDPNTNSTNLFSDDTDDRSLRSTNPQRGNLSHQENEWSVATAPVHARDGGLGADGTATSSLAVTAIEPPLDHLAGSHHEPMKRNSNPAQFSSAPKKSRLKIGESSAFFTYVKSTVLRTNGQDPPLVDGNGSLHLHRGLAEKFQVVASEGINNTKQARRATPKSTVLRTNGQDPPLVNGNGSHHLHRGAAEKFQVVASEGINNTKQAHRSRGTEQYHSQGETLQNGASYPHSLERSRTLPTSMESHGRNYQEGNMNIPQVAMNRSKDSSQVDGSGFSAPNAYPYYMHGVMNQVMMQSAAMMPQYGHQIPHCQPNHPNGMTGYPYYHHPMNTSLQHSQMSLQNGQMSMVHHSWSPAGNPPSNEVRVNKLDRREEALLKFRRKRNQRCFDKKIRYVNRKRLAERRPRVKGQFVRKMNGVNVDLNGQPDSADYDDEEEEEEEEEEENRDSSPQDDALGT

B1: AD-ABI5 (ABSCISIC ACID-…5, full length, fused to the Gal4 activation domain) (protein, UniProt Q9SJN0 1-442)
chain: MVTRETKLTSEREVESSMAQARHNGGGGGENHPFTSLGRQSSIYSLTLDEFQHALCENGKNFGSMNMDEFLVSIWNAEENNNNQQQAAAAAGSHSVPANHNGFNNNNNNGGEGGVGVFSGGSRGNEDANNKRGIANESSLPRQGSLTLPAPLCRKTVDEVWSEIHRGGGSGNGGDSNGRSSSSNGQNNAQNGGETAARQPTFGEMTLEDFLVKAGVVREHPTNPKPNPNPNQNQNPSSVIPAAAQQQLYGVFQGTGDPSFPGQAMGVGDPSGYAKRTGGGGYQQAPPVQAGVCYGGGVGFGAGGQQMGMVGPLSPVSSDGLGHGQVDNIGGQYGVDMGGLRGRKRVVDGPVEKVVERRQRRMIKNRESAARSRARKQAYTVELEAELNQLKEENAQLKHALAELERKRKQQYFESLKSRAQPKLPKSNGRLRTLMRNPSCPL
binding [1]: no binding | binding [2]: binds | binding [3]: no binding
